Measurements reported in the supplement of paper PMC10338343.
± gives the standard deviation. The entries are a selection whose mix differs from that of the whole data set.

These sequences were tested on MIWI (PIWIL1) piRISC loaded with piRNA #1 (30 nt) (assay: pre-steady-state target cleavage rate (min^-1); MIWI and MILI are mouse PIWI proteins and EfPiwi is from a freshwater sponge; tags in brackets are library labels; higher = faster piRNA-guided slicing of the target). Conditions: guide: piRNA #1 5'p-UGAGGUAGUAGGUUGUAUAGUAUCCAGAGG; auxiliary factor: 500 nM mouse GTSF1.
In short: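 Active affinity-purified piRISC carrying one synthetic guide (1 nM) was mixed with a transcribed, DNA-blocked target RNA library […] in HEPES–potassium acetate buffer at 33 °C for 0–8 or 0–960 min, with or without 500 nM GTSF1 partner protein. Uncleaved targets were then sequenced and normalised to depth and to weakly complementary targets. Three trials were pooled, and k3 was capped at 0.0001 min^-1. A burst-and-steady-state fit was applied to obtain the pre-steady-state cleavage rate.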
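Note: 1 nM active piRISC with 0.1 nM target library at 33 °C single turnover.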

| Sequence | pre-steady-state target cleavage rate |
| --- | --- |
| GCUCUCGAUACUAUACAUCCUACUACCUCA | 1.72 ± 0.09 |
| GGAGACCUAACUAUAGAACCUUCUACCUCA | 0.114 ± 0.014 |
| GGACUGGAUACUAUACAGACCUACUACCUCA | < 0.0001 |
| GGACUGGUUACUAUACAACCAACUACCUCA | 0.0817 ± 0.0099 |
| GGAGACCUUACUAUACAUCCUACUUCCUCA | 0.228 ± 0.026 |
| CCUCUGGAUACUAUUCAACCAACUACCUCA | 0.135 ± 0.017 |
| GGAGACCUAACUAUACUACCUACUACCUCA | 0.227 ± 0.035 |
| CCUGUGGAUACUAUAGAACCUACUACCUCA | 1.48 ± 0.088 |
| GGAGACCUAACUAUAGAACCUACUACCUCA | 0.748 ± 0.076 |
| CCUCUGGAUACUAUACAACCUAGAUCCUCA | 0.0633 ± 0.016 |
| GGACUGGAUACUAAACAACCUACUACCUCA | 1.62 ± 0.12 |
| GGAGACCUAUGUAUACAACCUUCUACGUCA | 0.00673 ± 0.0022 |
| GGUCUGGAUACUAAUACAACCUACUACCUCA | 1.67 ± 0.11 |
| GCUCUCGAUUCUAUACAACCUACUACCUCA | 2.09 ± 0.12 |
| CCUCUGGAUACUAUACAACCUACUACCUCCA | 2.27 ± 0.14 |
| GGAGUCGUUACUAUACAACCUACUACCUCA | 1.18 ± 0.088 |
| GGAGACCUAUCUAUUCAACCUACUACCUCA | 0.471 ± 0.054 |
| GGAGACCUUACUAUACAACCUACUAGCUGA | 0.142 ± 0.031 |
| CCUCUGGAUACUAUUCAACCUUCUACCUCA | 0.624 ± 0.032 |
| GGUCUGGAUACCAUACAACCUACUACCUCA | 1.68 ± 0.093 |

| Sequence | pre-steady-state target cleavage rate |
| --- | --- |
| GGACUGGAUACUGAUACAACCUACUACCUCA | 1.59 ± 0.13 |
| GGAGUGGAUACUAUACAACCUACUACCCUCA | 0.629 ± 0.074 |
| GGAGAGGAUACAAUUCAACCUACUACCUCA | 1.06 ± 0.07 |
| GGAGACCUAUGAUAUGUACCAACUACCUCA | < 0.0001 |
| GGAGAGGAUACUAUACUACCUACUACGUCA | 0.403 ± 0.032 |
| GGAGACCAUACAUACAACCUACUACCUCA | 0.36 ± 0.056 |
| GGAGACCAUACUAAACAACCUAGUACCUCA | 0.297 ± 0.028 |
| GCUCUGGAUACUAAACAACCUACUAGCUCA | 1.08 ± 0.1 |
| GGAGACGAUACUAUACUACCUACUACCUGA | 0.812 ± 0.068 |
| GGAGACGAUACAAAACAACCUACUACCUCA | 0.509 ± 0.083 |
| GGAGACCUAUCUAUACUACCUACUACGUCA | 0.025 ± 0.0069 |
| GGAGACCAUACUAUACAACCUACUACCACA | 1.68 ± 0.15 |
| GGAGUGGAUACUAUACAAGCAACUACCUCA | 0.0272 ± 0.0039 |
| GGAGACGAUACUAUACAAGGUACUACCUCA | 0.341 ± 0.024 |
| GGAGACCUAUGAUAUCAACGUACAACCUCA | < 0.0001 |
| GGAGACCUAUGAUAACAACCUCACUACCUCA | 0.00789 ± 0.0021 |
| GGAGUGGAAACAAUACAACCUACUACCUCA | 0.696 ± 0.072 |
| CCUCUGCAUACUAUACAUCCUACUACCUCA | 1.81 ± 0.11 |
| CCACUGGAUACUAUACAACCUUCUACCUCA | 0.709 ± 0.034 |
| GGAGACCUAACUAUACCACCUACUACCUCA | 0.351 ± 0.041 |
